According to PubChem BioAssay AID1963576 (National Center for Advancing Translational Sciences (NCATS), 2024):
Hit rate of the full screen: of about 46,000 compounds, about 60 (0.1%) were called active. Not shown: some 3% with an inconclusive outcome. Calls follow the shape of the dose curve; as a rule, active = well fitted inhibition curve with a large enough effect; inconclusive = small, poorly fitted or top-dose-only effect; inactive = no such curve, though single readings can be large or run the other way. Some of the results follow.

Assay: Primary qHTS assay for Inhibitors of ovarian cancer metastasis using an organotypic tumor microenvironment (TME) model. Also: nearly all actives have a fitted effect of over 65% in size.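 As to activity change, negative = inhibition: plate controls were DMSO wells for no effect and tomatine positive control wells for full effect.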
Details: SKOV3ip1-GFP adhesion/invasion on 3D omental model, fluorescence; series mostly up to 45.8 µM; activity change, negative = inhibition: at the top concentration
How it was run: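 A 3D layer of primary human omental fibroblasts, mesothelial cells, fibronectin and collagen I, grown 48 hr, received SKOV3ip1-GFP cells in serum-free medium plus compounds at 0.36-46 umol/L. After 2 hr RT and 16 hr 37 C, fixed adherent GFP cells were counted; normalized to DMSO and tomatine.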

Activity change, negative = inhibition, inactive:
COc1ccc(S(=O)(=O)c2cn(C)c3cc(N4CCCCCC4)c(F)cc3c2=O)cc1 2.89%, COc1ccc(-c2noc(-c3nnn(-c4ccc(C)cc4C)c3C)n2)cc1 10.9%, COc1ccc(NC(=O)CSC2=Nc3ccccc3C3=NC(CCC(=O)NC4CCCCC4)C(=O)N23)cc1Cl (stereo not given) 7.81%, Cc1ccc(-n2nc(CO)c(C(=O)NCc3cccnc3)n2)cc1C -3.85%, CCOc1ccccc1CNS(=O)(=O)c1ccc(-c2cnc(C3CC3)o2)cc1 -7.38%, COc1ccc(OC)c(C2CC(=O)Nc3c2c(=O)n(C)c2ncnn32)c1 (stereo not given) 6.84%, COc1ccccc1NC(=O)CSCc1cc(=O)c2cccc(Cl)c2[nH]1 2.11%, CCOC(=O)c1c(-c2ccccc2)oc2ccc(NS(=O)(=O)c3ccc(C)cc3)cc12 2.82%, CCc1ccc2occ(CC(=O)Nc3c(C(=O)c4ccccc4)oc4ccccc34)c2c1 3.95%, O=C(CSC1=Nc2ccccc2C2=NC(Cc3ccccc3)C(=O)N12)Nc1cccc(Cl)c1 (stereo not given) 1.02%, Cc1ccc(CNC(=O)c2cc3sc(Cl)cc3n2C)cc1 5.32%, Cc1ccnc(NC(c2cccc(O)c2)c2ccc3ccc(C)nc3c2O)c1 (stereo not given) -2.66%, COc1ccccc1N1CCN(S(=O)(=O)c2cc(C(=O)Nc3ccc(Oc4ccccc4)cc3)ccc2F)CC1 13.1%, Cc1cccc(CS(=O)(=O)Cc2ccc(C(=O)NCc3ccc(F)cc3)o2)c1 14.9%, O=C(Cn1c(=O)n(-c2ccccc2)c(=O)c2c3c(sc21)CCC3)c1ccc(Br)cc1 6.14%, Cc1ccc2nc(-c3ccc(Cl)c(NC(=O)COc4ccc([N+](=O)[O-])cc4)c3)oc2c1 -0.683%, CCOC(=O)c1c(C)oc2ccc(N(C(=O)c3ccncc3)S(=O)(=O)c3ccc(F)cc3C)cc12 8.7%, Cc1noc(-c2ccc(-c3noc(-c4ccc(Cl)cc4)n3)cc2)n1 8.15%, CCN(C(=O)c1cc2c(=O)oc3ccccc3c2s1)c1ccccc1F 16.7%, CCOC(=O)c1ccc(Nc2c(-c3ccc(N(C)C)cc3)nc3nc[nH]n23)cc1 1.55%, O=C(CN1C(=O)CCc2cc(Br)ccc21)Nc1ccc(OC(F)(F)F)cc1 -3.94%, Cc1cc(C)cc(NC(=O)CN2C(=O)c3ccccc3Sc3ccc(C(=O)N4CCCC4)cc32)c1 2.62%, COc1ccc(Cn2c(=O)n(-c3ccc(C)cc3)c(=O)c3c2c2cc(C)ccc2n3C)cc1 11.8%, COc1ccc(NC(=O)c2cnc3cc(C)ccn3c2=O)c(OC)c1 -3.02%, COc1cccc(CNC(=O)c2nn(C)c3c2CSc2ccccc2-3)c1 -9.24%, COc1ccccc1Cc1nc2ccccc2nc1SCC(=O)NCc1ccc(C)cc1 -15.7%, COc1ccc(C)cc1NC(=O)Cn1nc(N2CCN(c3ccccc3OC)CC2)ccc1=O 0.821%, O=C(COCc1cc(-c2ccco2)on1)Nc1cc(Cl)ccc1O -7.98%, Cc1noc(C)c1S(=O)(=O)N(CC(=O)NCc1ccccc1)c1ccc(C(C)C)cc1 0.79%, COc1ccccc1CNC(=O)C(=O)NCC(c1cccnc1)N1CCN(c2ccccc2)CC1 (stereo not given) -2.18%, CC1CCN(C(c2ccc(F)cc2)c2sc3nc(-c4ccco4)nn3c2O)CC1 (stereo not given) -0.286%, COc1ccc(CC(=O)N2CCc3c([nH]c4ccccc34)C2c2ccc(SC)cc2)cc1 (stereo not given) 2.75%, COCCNC(=O)CCn1nc(-c2ccc(Cl)cc2)c2ccccc2c1=O 10.5%, CC(=O)N1CCCc2cc(S(=O)(=O)Nc3ccc(Cl)cc3F)ccc21 1.38%, CCc1ccc(-n2c(N3CCN(c4ccc(F)cc4)CC3)nc3ccccc3c2=O)cc1 0.0461%, COc1ccc(NC(=O)C(NC(=O)/C=C\c2ccc3c(c2)OCO3)c2ccc(C)cc2)cc1 (stereo not given) 5.92%, O=C(c1ccc2c(c1)N(Cc1ccccc1)C(=O)c1ccccc1S2(=O)=O)N1CCOCC1 -9.47%, COc1ccc(C(=O)N2CCN(C(=O)COc3ccccc3)CC2)cc1OC 3.49%, COc1ccc(-c2nc3ccccc3s2)cc1NC(=O)c1cc(OC)c(OC)c(OC)c1 2.58%, Cc1cc(S(=O)(=O)Nc2cc3c(cc2N2CCOCC2)n(C)c(=O)c(=O)n3C)ccc1F -3.53%, COc1ccc(-c2nc3n(n2)C(c2ccc(O)cc2)C(C(=O)Nc2cccnc2)=C(C)N3)cc1OC (stereo not given) 7.07%, Cc1csc2nc(COc3ccc(NC(=O)c4ccccc4F)cc3)cc(=O)n12 -0.875%, COc1ccc(C(=O)Nc2nc(-c3ccc(Br)cc3)ns2)cc1 -4.02%, Cc1nn(Cc2ccccc2Cl)c(C)c1CN(C)CC(O)COc1ccc(Cl)cc1 (stereo not given) 9.37%, CCCn1c2ccccc2c2cnn(CC(=O)NCC3CCN(Cc4ccccc4C)CC3)c(=O)c21 -16.7%, COc1ccccc1CNc1nccn(-c2ccc(F)cc2)c1=O 0.611%, COC(=O)CN1C(=O)C(O)(c2c(C)[nH]c3ccccc23)c2ccccc21 (stereo not given) 2.66%, CCOc1ccc(CCNC(=O)NCc2noc3ccc(C)cc23)cc1 -4.04%, CCCNC(=O)c1ccc(Cn2c(SCC(=O)NC(C)C)nc3ccccc3c2=O)cc1 -11.1%, CCOCCc1nn2c(=O)cc(COC(=O)c3ccc(NC(=O)c4cccs4)cc3)nc2s1 -6.58%, Cc1ccc(C(=O)c2oc3ccccc3c2NC(=O)c2cc(-c3ccccc3)on2)cc1 -1.19%, Cc1ccc(-n2ncc3c(Nc4ccc5c(c4)OCCO5)ncnc32)cc1Cl -7.29%, O=C(NC1CC(=O)N(c2ccc(F)cc2)C1)c1ccc(S(=O)(=O)N2CCOCC2)cc1 (stereo not given) -4.37%, Cn1c(=O)c2c(-c3ccccc3)n3c(c2n(C)c1=O)C(c1ccc([N+](=O)[O-])cc1)Nc1ccccc1-3 (stereo not given) -3.76%, COc1ccc(NC(=O)Cn2c(=O)c3cccn3c3ccccc32)cc1 13.3%, Cc1ccc(C(C)C)c(OCC(=O)Nc2ccc3c(c2)nc(CCNC(=O)c2ccco2)n3C)c1 -0.645%, O=C(O)CCC(=O)N1CCc2cc(S(=O)(=O)NCc3ccc(F)cc3)ccc21 1.57%, COc1ccc(NC(=O)c2cccc3c(=O)c4c([nH]c23)CCCC4)cc1 20.7%, CCOC(=O)c1[nH]c(C)c(CCC(=O)N2CCN(c3ccc(OC)cc3)CC2)c1C -0.41%, CCOC(=O)C1CCN(C(=O)C2CCN(S(=O)(=O)c3c(C)noc3/C=C/c3ccc(C)cc3)CC2)CC1 14.4%, CCSc1nc(-c2ccccc2)nc2c1Cc1c(CO)cnc(C)c1O2 -9.83%, COc1ccc(CCNC(=O)c2ccc3c(c2)N(Cc2ccccc2Cl)C(=O)c2ccccc2S3)cc1OC -8.34%, CCOC(=O)c1cc2c(=O)n3ccccc3nc2n(CC2CCCO2)c1=NC(=O)c1cccc(C)c1 (stereo not given) -12.1%, O=C(COc1ccccc1F)Nc1nnc(SCc2cc(=O)n3ccccc3n2)s1 -27.2%, Cc1ccc(CN2c3ccccc3-c3nc(SCC(=O)NCc4ccccc4)ncc3S2(=O)=O)cc1 -1.97%, O=C(CS(=O)(=O)c1cccc2nsnc12)NCc1ccccc1Cl 32.1%, COc1ccc(-c2cccc(NS(=O)(=O)c3cc(C(F)(F)F)ccc3Cl)c2)nn1 -1.11%, CCc1nc2ccc(C(=O)NCc3ccccc3C)cc2nc1CC 19.9%, Cc1ccc(S(=O)(=O)NCCc2nnc3ccc(SCc4ccccc4F)nn23)cc1 5.75%, Cc1cc(C)c(NC(=O)CN2C(=O)C3(SCC(=O)N3c3ccc(F)cc3)c3ccccc32)c(C)c1 (stereo not given) 1.31%, Cc1ccc(NC(=O)c2oc3ccc(S(=O)(=O)N4CCCCC4)cc3c2C)c(C)c1 -18.8%

outcome, inactive:
CCOC(=O)c1cc(NC(=O)c2ccccc2)c(=O)n2c1oc1ccc(Cl)cc12, COc1ccc(Cl)c2sc(NC(=O)c3ccc(S(=O)(=O)N4CCCC4)cc3)nc12, COc1ccccc1Cn1c(C2CC(=O)N(c3ccccc3OC)C2)nc2ccccc21 (stereo not given), COc1cccc(NC(=O)c2cnc(SCC(=O)N3CCCc4ccccc43)n(C)c2=O)c1, CC(C)CCNC(=O)CCCn1c(=O)c2cccn2c2ccccc21, COc1ccccc1NC(=O)CSc1nnc2c(n1)[nH]c1ccccc12, Cc1ccc(C)c(CN2CCCN(Cc3ccccc3C)S2(=O)=O)c1, COc1ccc(-c2nc(SCC(=O)NC3CCCC3)c(-c3ccc(F)cc3)[nH]2)cc1OC, O=C(Nc1ccc2oc(-c3cccnc3)nc2c1)c1ccccc1F, O=C(Nc1cccc(Br)c1)c1cc(S(=O)(=O)N2CCCCC2)c[nH]1, Cc1cccc(C(=O)N2CCc3cc(CNC(=O)c4ccco4)ccc32)c1, CCOC(=O)c1c(NC(=O)c2ccc(S(=O)(=O)N3CCCC(C)C3)cc2)sc2c1CC(C)(C)NC2(C)C (stereo not given), CCOCCCN1C(=O)CN(C2CCCCCC2)C(=O)C1c1ccc(OCC)c(OC)c1 (stereo not given), COc1ccc(S(=O)(=O)NCCc2sc(-c3cccnc3)nc2C)cc1, CCCCN(C)S(=O)(=O)c1ccc(C(=O)Nc2sc3c(c2C(=O)OCC)CCN(C(C)C)C3)cc1, CCOC(=O)c1c(NC(=O)Nc2ccc(F)cc2)sc(C(=O)N(C)C)c1C, Cc1ccccc1Cn1nnc2sc3c(c2c1=O)CCCC3, COc1ccc(C(=O)NCCc2csc(-c3ccc(Cl)cc3)n2)cc1, COc1ccc(-n2cc(-c3ccccc3)c3c(N4CCCC(C)C4)ncnc32)cc1 (stereo not given), Cn1cc(CCCC(=O)NCc2cccc(Br)c2)c2ccccc21, Cc1ccc(N(CC(=O)Nc2ccc(F)cc2F)S(=O)(=O)c2cccs2)cc1, Cc1cccc(N2CCN(C(=O)C(C)n3nc(C)n4c(cc5occc54)c3=O)CC2)c1C (stereo not given), Cc1cc(C)c(NC(=O)c2c(C)oc3c2C2=NCCN2C=N3)c(C)c1, CCCCCCc1cc2cc(-c3nnc(-c4cccc(Cl)c4)o3)c(=O)oc2cc1O
